Reference: PMC4574636 (Biochemical pharmacology, 2015)

Molecular target: T1, human AOX1 A1023Y (Homo sapiens, UniProt Q06278, A1023Y)
T1 sequence (Q06278 1-1338 A1023Y): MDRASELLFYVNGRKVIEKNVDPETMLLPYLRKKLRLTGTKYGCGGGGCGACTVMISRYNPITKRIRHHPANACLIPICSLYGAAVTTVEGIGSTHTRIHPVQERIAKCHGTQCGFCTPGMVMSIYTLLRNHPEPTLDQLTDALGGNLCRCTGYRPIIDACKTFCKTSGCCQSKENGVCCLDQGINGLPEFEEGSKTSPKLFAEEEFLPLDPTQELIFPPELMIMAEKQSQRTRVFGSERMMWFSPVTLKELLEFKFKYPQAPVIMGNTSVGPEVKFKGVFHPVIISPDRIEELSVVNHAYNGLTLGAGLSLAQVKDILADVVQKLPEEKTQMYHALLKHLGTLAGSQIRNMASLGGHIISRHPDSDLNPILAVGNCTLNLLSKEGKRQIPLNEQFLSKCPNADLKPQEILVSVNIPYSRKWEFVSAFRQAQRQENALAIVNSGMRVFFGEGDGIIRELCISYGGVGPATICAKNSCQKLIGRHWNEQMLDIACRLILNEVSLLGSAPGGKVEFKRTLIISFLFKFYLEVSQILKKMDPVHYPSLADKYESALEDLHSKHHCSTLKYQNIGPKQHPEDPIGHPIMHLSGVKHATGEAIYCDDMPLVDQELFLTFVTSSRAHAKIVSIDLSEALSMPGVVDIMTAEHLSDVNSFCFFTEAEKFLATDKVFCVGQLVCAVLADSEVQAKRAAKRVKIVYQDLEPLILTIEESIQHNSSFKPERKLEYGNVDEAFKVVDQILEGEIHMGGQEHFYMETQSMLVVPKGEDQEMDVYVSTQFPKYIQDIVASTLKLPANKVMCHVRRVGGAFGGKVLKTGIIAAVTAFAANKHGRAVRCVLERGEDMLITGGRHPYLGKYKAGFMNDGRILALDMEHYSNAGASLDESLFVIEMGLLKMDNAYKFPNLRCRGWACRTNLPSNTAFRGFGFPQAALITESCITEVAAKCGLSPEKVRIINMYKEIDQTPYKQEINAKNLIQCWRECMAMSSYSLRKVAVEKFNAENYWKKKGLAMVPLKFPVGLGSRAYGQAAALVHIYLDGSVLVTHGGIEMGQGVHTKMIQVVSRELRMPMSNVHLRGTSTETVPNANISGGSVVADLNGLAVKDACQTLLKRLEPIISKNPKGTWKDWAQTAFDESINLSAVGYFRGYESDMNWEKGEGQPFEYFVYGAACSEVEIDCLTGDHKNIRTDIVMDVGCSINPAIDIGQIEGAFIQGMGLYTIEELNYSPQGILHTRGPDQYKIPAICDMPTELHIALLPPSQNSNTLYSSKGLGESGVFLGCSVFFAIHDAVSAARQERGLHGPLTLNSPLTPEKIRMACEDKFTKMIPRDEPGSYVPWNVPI
Experiment: Methotrexate hydroxylation by purified recombinant human AOX1 A1023Y mutant
Format: in vitro ADME
Settings: A1023Y single mutant

CN(Cc1cnc2nc(N)nc(N)c2n1)c1ccc(C(=O)N[C@@H](CCC(=O)O)C(=O)O)cc1 [Methotrexate, 4-amino-N^1^0-methylpteroglutamic acid] was tested, and the “Km / affinity vs wild type” value (Figure 5) was “decreased affinity for methotrexate compared to wild type AOX1” and the “Methotrexate hydroxylation activity vs wild type” value (p < 0.01, Figure 5) was “significant decrease”.
